The record followed here is US7112553B1, “Pesticidal indazole or benzotriazole derivatives” (Syngenta Limited, priority 1999, dated 2006).

SMILES strings stand for the structures.

For the data set, the system named is two-spotted spider mites (Tetranychus urticae). Conditions: 500 ppm liquid composition; similar test to the aphid test.

For the compound `CCCCCn1nc2ccc(CC(=O)Nc3snc(C)c3Cl)cc2n1` [Sample 9], the mortality score is 5 (5 indicates 40–79% mortality).
